This is one part of the list.

Here are results for 57 sequences from the supplement of paper PMC11417369.

The subject of the experiment is PfSIP2 AP2 domain 1 (GST-tagged). Kind of experiment: gcPBM binding intensity (ln(normalized median fluorescence intensity)); higher = stronger DNA binding. In a few lines: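 GST-tagged P. falciparum DNA-binding domains, expressed in E. coli (about 25 μg on average), were applied for 1 h to an Agilent 4 × 180k array of primer-extended double-stranded 36-bp intergenic genomic probes plus negative controls. The binding buffer was 1× PBS with 1% milk, 0.2 mg/ml BSA, 0.5% salmon testes DNA and 0.03% Triton X-100. Bound protein was detected with Alexa488 anti-GST antibody and scanned at 488 nm. Binding intensity is the highest Masliner-normalised natural-log median intensity across replicate spots of either probe orientation.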
Take “CAAATAGCTAGCTGTGCACACAAACATATTTTCCAA [CACACA_site879]”: the “gcPBM binding intensity (ln)” value amounted to 8.69.

In the case of “CACAAACAAAGACACACACACACACGCACAAAAATG [CACACA_site7193]”, the “gcPBM binding intensity (ln)” value stood at 7.25.

Regarding “CATATATACTCATACACACACACACCGACACAGACA [CACACA_site5026]”, the “gcPBM binding intensity (ln)” value stood at 7.33.

“ATGATATGGATAAATACACACAATATAATAATGTCT [CACACA_site1433]”: the “gcPBM binding intensity (ln)” value amounted to 6.99.

Regarding “TATGATGAGATAACAAAAGTTGTACTTTTTTTTTTT [CACACA_negctrl_site1172]”, the “gcPBM binding intensity (ln)” value was 6.99.

Turning to “ATATTTTTTAGGGTCACACATACTTATTATATAAAT [CACACA_site4926]”, the “gcPBM binding intensity (ln)” value was 7.11.

In the case of “AATATTTAACACCTTATACACACTTTCTTCCTTTTT [CACACA_site785]”, the “gcPBM binding intensity (ln)” value was found to be 6.9.

On to “AAAGCACGCAAGAATACACACAAATATTATAAAAAA [CACACA_site6206]”, for which the “gcPBM binding intensity (ln)” value stood at 6.94.

As for “ATCCCAGTAATATATAGTACATAACTATAAGAGAAT [XGTACX_site6909]”, the “gcPBM binding intensity (ln)” value turned out to be 7.09.

For the sequence “TAAAAAATTATAAAATGTACATAAAAAAAAAAAAAA [XGTACX_site3376]”, the “gcPBM binding intensity (ln)” value came out at 7.13.

Regarding “CTGAAGAAACTACAACGTACAAAATATGTATATATT [XGTACX_site3779]”, the “gcPBM binding intensity (ln)” value was found to be 6.79.

Take “AGGAAAACAAAAGATGCATGCTAATTTTCCTCGCGT [TGCATGCA_site627]”: the “gcPBM binding intensity (ln)” value is 6.59.

As for “AAAATTAATAAATGAGAAAAAAGGATGAATAATGAG [CACACA_negctrl_site1614]”, the “gcPBM binding intensity (ln)” value stood at 7.43.

With “AGAAAAAAAATGTATACACACAAATATAAAGAAGGA [CACACA_site3806]”, the “gcPBM binding intensity (ln)” value was found to be 7.41.

In the case of “TTTATTAATTAAACCATACACACATAATTTTTTTAT [CACACA_site842]”, the “gcPBM binding intensity (ln)” value was 7.16.

With “AAACGTGCGTATATGTGTACGCATATATATATATAT [XGTACX_site5252]”, the “gcPBM binding intensity (ln)” value was found to be 9.79.

“TATATATATATATATTGTACAAAGATTAATATATAA [XGTACX_site8433]”: the “gcPBM binding intensity (ln)” value stood at 9.36.

Turning to “TATTTTAATAAGAATAAATGAAATGAAATGAAATAT [CACACA_negctrl_site823]”, the “gcPBM binding intensity (ln)” value amounted to 6.99.

For the sequence “ACTTAATTTTTTTATTGTACATGTAAATGAGGGAAA [XGTACX_site6305]”, the “gcPBM binding intensity (ln)” value stood at 7.48.

On to “ACATCCTATAAATAGAGTACGTAAATTATAATACAC [XGTACX_site5338]”, for which the “gcPBM binding intensity (ln)” value was 7.24.

Turning to “ATGAATTTTTCTCTACAAAAGGATATAATAAAAATA [XGTACX_negctrl_site461]”, the “gcPBM binding intensity (ln)” value is 6.9.

As to “TAGTGTGCCAAATTAGCACACACATATATACATGAA [CACACA_site8910]”, the “gcPBM binding intensity (ln)” value was determined as 7.01.

Consider “TTTTCTAATTAATATTGTACATAAATGTATATATAT [XGTACX_site4749]”, for which the “gcPBM binding intensity (ln)” value came to 7.42.

Regarding “CTTCTGGACAGGAATGCACACATTTTTTTTTCTTTT [CACACA_site1807]”, the “gcPBM binding intensity (ln)” value stood at 7.

Consider “GTTTTTATCATATCATGTACGTATTTTATTTTTTTT [XGTACX_site8643]”, for which the “gcPBM binding intensity (ln)” value was determined as 7.21.

Regarding “ATCAAAGATAAATTTACACACATATAAATATAAATA [CACACA_site7409]”, the “gcPBM binding intensity (ln)” value came out at 6.88.

“GAAAAGTATAAAAAACGTACAAGTTTTATTTTCACA [XGTACX_site4604]”: the “gcPBM binding intensity (ln)” value came to 6.89.

As for “CCCCTATAAATAGGGTGTACTAATAAATATTTTTAA [XGTACX_site1244]”, the “gcPBM binding intensity (ln)” value came out at 7.33.

For “ACGGGCGACACATAAGTGCGCAAAAAAAAAAAAATA [GTGCAC_site9688]”, the “gcPBM binding intensity (ln)” value came to 8.29.

On to “TAAAATAAAAAGTTTACACACATATATAACTTTAAT [CACACA_site6456]”, for which the “gcPBM binding intensity (ln)” value worked out at 6.77.

“AAAATACAGAAACACACACACACACCCATATATATA [CACACA_site3559]”: the “gcPBM binding intensity (ln)” value came out at 7.39.

“TTTTATAAAACATGTAGTACATGAAAAAAAAAATTT [XGTACX_site1626]”: the “gcPBM binding intensity (ln)” value stood at 7.61.

For the sequence GTATTCATTCCTTGAGTGCAATTGCAATAAATAAAA, the “gcPBM binding intensity (ln)” value stood at 9.21.

For the sequence “CATATTAAGATGTGTACACATTTTTATTTTTTTTTT [CACACA_site4425]”, the “gcPBM binding intensity (ln)” value stood at 6.97.

For “AAATGACGAAATAAAATCATAAATTAAAATAAATAA [CACACA_negctrl_site655]”, the “gcPBM binding intensity (ln)” value came out at 6.57.

As to “ATAGCATTTCACAAATGTACATAAAAAAATAAAAAT [XGTACX_site402]”, the “gcPBM binding intensity (ln)” value came to 7.21.

Regarding “TAAAACAAAATGGTAACACACACATATATATATATA [CACACA_site8590]”, the “gcPBM binding intensity (ln)” value is 9.23.

“AATATATAAATATATATAAATAAATATATATATAAA [CACACA_negctrl_site49]”: the “gcPBM binding intensity (ln)” value is 6.68.

Consider “AAATGGAAATTAATATGTACATATTTATAAGTATGA [XGTACX_site1774]”, for which the “gcPBM binding intensity (ln)” value stood at 7.1.

With “TCCTATCATTTATATTTTACTACATAATATTGATAA [GTGCAC_negctrl_site286]”, the “gcPBM binding intensity (ln)” value was found to be 7.32.

As to “ATGTTTCTATAGATTTGTACATATTTCATATGAATA [XGTACX_site1053]”, the “gcPBM binding intensity (ln)” value is 7.13.

As to “TTATTTTTTGTATGAACACACAACTTAATTATGATG [CACACA_site2448]”, the “gcPBM binding intensity (ln)” value was determined as 7.

As for “TCTTTTCTTTTGTGTGTGCACATATAAGCATGAAAC [GTGCAC_site9910]”, the “gcPBM binding intensity (ln)” value was found to be 9.66.

With “TTTTACAAATATTTCTGTACACATTCTCATATAATT [XGTACX_site1974]”, the “gcPBM binding intensity (ln)” value is 7.16.

Turning to “TTTTTTAATTAATTACCTTTGAATGTGTATTAGGAC [GTGCAC_negctrl_site651]”, the “gcPBM binding intensity (ln)” value came out at 7.26.

In the case of “AATAATATATTATATGCATGTGTATAATTTGATATA [TGCATGCA_site1058]”, the “gcPBM binding intensity (ln)” value came to 7.17.

As to “TTTGGTTATTTGACCTGTACACATTTAATTATTTTT [XGTACX_site5170]”, the “gcPBM binding intensity (ln)” value came out at 7.02.

Take “CAAAGGAAATGGTGTACACAATTTTTCCTTTTTCGT [CACACA_site4800]”: the “gcPBM binding intensity (ln)” value stood at 6.9.

“ATTATGAATTTAAGACGTACAAAAAATTTTTATTCA [XGTACX_site5682]”: the “gcPBM binding intensity (ln)” value is 7.16.

For “ACAAGTATTCCTTTTGCACACCTTTCTGCACCTTAT [CACACA_site3873]”, the “gcPBM binding intensity (ln)” value amounted to 11.7.

As to AAATACTTATTCGTGGTGCAACAATTTTAAAAATTA, the “gcPBM binding intensity (ln)” value was 9.9.

On to “ATTAAAATAATACGTACACACATGTATAATACATAT [CACACA_site1005]”, for which the “gcPBM binding intensity (ln)” value worked out at 7.52.

“TATTACATAATATATGTACACACGCAAATACTTATA [CACACA_site7994]”: the “gcPBM binding intensity (ln)” value was determined as 7.08.

As to “TAACAACGATACAATTGTACAAATTATATATATATA [XGTACX_site4687]”, the “gcPBM binding intensity (ln)” value was determined as 9.17.

“CAAAAAAAGTTATACACACACACACGGATATAAATA [CACACA_site6619]”: the “gcPBM binding intensity (ln)” value is 6.97.

On to “AGCAAGACGGGGTGCACACAAACTAATATGCCGAAT [CACACA_site159]”, for which the “gcPBM binding intensity (ln)” value stood at 12.1.

Turning to “AATATAATATACATATGTACATATATATATATATAT [XGTACX_site8218]”, the “gcPBM binding intensity (ln)” value is 9.4.
